Assay results from the supplement of paper PMC4967469.
By IC50 is meant the dose at which the fit gives 50% viability; a fit beyond the top or the lowest dose is shown as a bound at that dose. The AUC spans the tested range (256-fold, ending at the top dose) of the same fit; the more sensitive the line, the further below 1. The top dose, if marked as inferred, is not printed in the source and was worked back from the curve model.

Columns and labels:
Experiment in all cases: Viability of human cancer cell lines after 72 h of drug (GDSC screen)
[1] = compound: CCc1cc2c(cc1N1CCC(N3CCOCC3)CC1)C(C)(C)c1[nH]c3cc(C#N)ccc3c1C2=O [CH5424802]; conditions: top dose 5.12 µM; top dose inferred
Description: (§1)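 Human cancer cell lines in 384-well plates, medium with 10% serum, drug for 72 h over a 256-fold dose range (nine 2-fold or five 4-fold steps up to the top dose). Adherent lines were fixed and stained with the nucleic acid dye Syto60, suspension lines read with resazurin; signal relative to control wells, capped at 0 and 100%. One two-parameter sigmoid per drug and line, fitted in a mixed model over all curves with the slope shared within a line.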

[2] = compound: CC(C)(C)OC(=O)Nc1ccc(-c2cc(C(=O)NCCCCCCC(=O)NO)no2)cc1 [CAY10603]; conditions: top dose 20 µM; top dose inferred
Description: as §1

[3] = compound: N#Cc1c(C2CCNCC2)cc(-c2c(O)cccc2OCC2CC2)nc1N [ACHP (KIN001-260)]; conditions: top dose 20 µM; top dose inferred
Description: as §1

| Cell Line | AUC [1] | IC50 [1] [µM] | AUC [2] | IC50 [2] [µM] | AUC [3] | IC50 [3] [µM] |
| --- | --- | --- | --- | --- | --- | --- |
| NCI-H1573 (lung adenocarcinoma, adherent) | 0.991 | > 5.12 | 0.694 | 4.29 | 0.986 | > 20 |
| NCI-H1581 (large cell lung carcinoma, semi-adherent) | 0.989 | > 5.12 | 0.495 | 1.22 | 0.983 | > 20 |
| NCI-H1666 (lung adenocarcinoma, semi-adherent) | 0.982 | > 5.12 | 0.686 | 4.37 | 0.982 | > 20 |
| NCI-H1693 (lung adenocarcinoma, adherent) | 0.963 | > 5.12 | 0.582 | 2.39 | 0.974 | > 20 |
| NCI-H1703 (lung adenocarcinoma, adherent) | 0.979 | > 5.12 | 0.86 | > 20 | 0.98 | > 20 |
| NCI-H1734 (lung adenocarcinoma, adherent) | 0.96 | > 5.12 | 0.547 | 1.7 | 0.98 | > 20 |
| NCI-H1793 (lung adenocarcinoma, adherent) | 0.982 | > 5.12 | 0.84 | > 20 | 0.978 | > 20 |
| NCI-H1836 (small cell lung carcinoma, suspension) | 0.968 | > 5.12 | 0.499 | 1.24 | 0.982 | > 20 |
| NCI-H1838 (lung adenocarcinoma, adherent) | 0.939 | > 5.12 | 0.892 | > 20 | 0.983 | > 20 |
| NCI-H1869 (lung squamous cell carcinoma, adherent) | 0.955 | > 5.12 | 0.769 | 8.53 | 0.931 | > 20 |
| NCI-H2009 (lung adenocarcinoma, adherent) | 0.985 | > 5.12 | 0.858 | 18 | 0.978 | > 20 |
| NCI-H2023 (lung adenocarcinoma, adherent) | 0.979 | > 5.12 | 0.809 | 13.7 | 0.974 | > 20 |
| NCI-H2029 (small cell lung carcinoma, adherent) | 0.99 | > 5.12 | 0.737 | 5.46 | 0.987 | > 20 |
| NCI-H2030 (lung adenocarcinoma, adherent) | 0.929 | > 5.12 | 0.607 | 2.57 | 0.909 | > 20 |
| NCI-H2052 (mesothelioma, adherent) | 0.952 | > 5.12 | 0.847 | > 20 | 0.982 | > 20 |
| NCI-H2081 (small cell lung carcinoma, suspension) | 0.985 | > 5.12 | 0.723 | 5.59 | 0.989 | > 20 |
| NCI-H2085 (lung adenocarcinoma, adherent) | 0.929 | > 5.12 | 0.678 | 4.1 | 0.918 | > 20 |
| NCI-H2135 (non-small cell lung carcinoma, adherent) | 0.985 | > 5.12 | 0.436 | 0.843 | 0.924 | > 20 |
| NCI-H2170 (lung squamous cell carcinoma, adherent) | 0.977 | > 5.12 | 0.617 | 2.67 | 0.984 | > 20 |
| NCI-H2172 (non-small cell lung carcinoma, adherent) | 0.978 | > 5.12 | 0.784 | 11.9 | 0.941 | > 20 |
| NCI-H2196 (small cell lung carcinoma, adherent) | 0.977 | > 5.12 | 0.456 | 0.944 | 0.951 | > 20 |
| NCI-H2227 (small cell lung carcinoma, semi-adherent) | 0.965 | > 5.12 | 0.305 | 0.327 | 0.911 | > 20 |
| NCI-H2342 (lung adenocarcinoma, adherent) | 0.974 | > 5.12 | 0.92 | > 20 | 0.971 | > 20 |
| NCI-H2405 (lung adenocarcinoma, adherent) | 0.972 | > 5.12 | 0.836 | 15.3 | 0.97 | > 20 |

| Cell Line | AUC [1] | IC50 [1] [µM] | AUC [2] | IC50 [2] [µM] | AUC [3] | IC50 [3] [µM] |
| --- | --- | --- | --- | --- | --- | --- |
| NCI-H2444 (non-small cell lung carcinoma, adherent) | 0.988 | > 5.12 | 0.705 | 5.15 | 0.988 | > 20 |
| NCI-H2452 (mesothelioma, adherent) | 0.984 | > 5.12 | 0.921 | > 20 | 0.984 | > 20 |
| NCI-SNU-1 (stomach, suspension) | 0.986 | > 5.12 | 0.49 | 1.17 | 0.878 | > 20 |
| NKM-1 (acute myeloid leukaemia, suspension) | 0.947 | > 5.12 | 0.285 | 0.301 | 0.804 | 10.3 |
| NU-DUL-1 (B-cell lymphoma, suspension) | 0.971 | > 5.12 | 0.193 | 0.196 | 0.632 | 2.66 |
| NUGC-3 (stomach, adherent) | 0.984 | > 5.12 | 0.655 | 3.56 | 0.984 | > 20 |
| OACM5-1 (oesophagus, semi-adherent) | 0.963 | > 5.12 | 0.453 | 0.917 | 0.875 | > 20 |
| OAW-28 (ovary, adherent) | 0.965 | > 5.12 | 0.393 | 0.587 | 0.938 | > 20 |
| OAW-42 (ovary, adherent) | 0.985 | > 5.12 | 0.684 | 4.28 | 0.985 | > 20 |
| OCI-AML2 (acute myeloid leukaemia, suspension) | 0.995 | > 5.12 | 0.301 | 0.407 | 0.874 | 11.5 |
| OCI-M1 (acute myeloid leukaemia, suspension) | 0.895 | 3.62 | 0.09 | 0.0965 | 0.922 | 18.3 |
| OCUM-1 (stomach, adherent) | 0.985 | > 5.12 | 0.982 | > 20 | 0.987 | > 20 |
| OE19 (oesophagus, adherent) | 0.982 | > 5.12 | 0.923 | > 20 | 0.986 | > 20 |
| OE33 (oesophagus, adherent) | 0.952 | > 5.12 | 0.552 | 1.78 | 0.976 | > 20 |
| OMC-1 (cervix, adherent) | 0.984 | > 5.12 | 0.728 | 5.77 | 0.988 | > 20 |
| OPM-2 (myeloma, suspension) | 0.899 | 4.39 | 0.299 | 0.386 | 0.879 | 14.1 |
| OSC-19 (head and neck, adherent) | 0.977 | > 5.12 | 0.491 | 1.18 | 0.969 | > 20 |
| OSC-20 (head and neck, adherent) | 0.971 | > 5.12 | 0.544 | 1.69 | 0.98 | > 20 |
| OVCAR-5 (ovary, adherent) | 0.963 | > 5.12 | 0.469 | 1.01 | 0.974 | > 20 |
| OVMIU (ovary, adherent) | 0.963 | > 5.12 | 0.485 | 1.13 | 0.942 | > 20 |
| P12-ICHIKAWA (T-cell lymphoblastic leukaemia, suspension) | 0.89 | 3.59 | 0.183 | 0.192 | 0.973 | > 20 |
| P30-OHK (lymphoblastic leukaemia, suspension) | 0.976 | > 5.12 | 0.232 | 0.247 | 0.866 | 13.1 |
| P31-FUJ (acute myeloid leukaemia, suspension) | 0.996 | > 5.12 | 0.634 | 2.66 | 0.994 | > 20 |
| P32-ISH (Burkitt lymphoma, suspension) | 0.994 | > 5.12 | 0.221 | 0.252 | 0.963 | > 20 |

| Cell Line | AUC [1] | IC50 [1] [µM] | AUC [2] | IC50 [2] [µM] | AUC [3] | IC50 [3] [µM] |
| --- | --- | --- | --- | --- | --- | --- |
| PA-1 (ovary, adherent) | 0.987 | > 5.12 | 0.131 | 0.129 | 0.911 | 17.5 |
| PA-TU-8902 (pancreas, adherent) | 0.98 | > 5.12 | 0.527 | 1.5 | 0.968 | > 20 |
| PA-TU-8988T (pancreas, adherent) | 0.986 | > 5.12 | 0.759 | 7.01 | 0.978 | > 20 |
| PANC-03-27 (pancreas, adherent) | 0.988 | > 5.12 | 0.57 | 1.91 | 0.962 | > 20 |
| PANC-04-03 (pancreas, adherent) | 0.943 | > 5.12 | 0.921 | > 20 | 0.972 | > 20 |
| PANC-08-13 (pancreas, adherent) | 0.958 | > 5.12 | 0.746 | 7.91 | 0.944 | > 20 |
| PANC-10-05 (pancreas, adherent) | 0.973 | > 5.12 | 0.521 | 1.45 | 0.981 | > 20 |
| PC-3 (prostate, adherent) | 0.977 | > 5.12 | 0.526 | 1.49 | 0.956 | > 20 |
| PC-3 [JPC-3] (lung adenocarcinoma, adherent) | 0.894 | > 5.12 | 0.679 | 4.69 | 0.928 | > 20 |
| PCI-15A (head and neck, adherent) | 0.984 | > 5.12 | 0.979 | > 20 | 0.975 | > 20 |
| PCI-38 (head and neck, adherent) | 0.977 | > 5.12 | 0.611 | 2.52 | 0.964 | > 20 |
| PE/CA-PJ15 (head and neck, adherent) | 0.981 | > 5.12 | 0.698 | 4.74 | 0.979 | > 20 |
| PF-382 (T-cell lymphoblastic leukaemia, suspension) | 0.984 | > 5.12 | 0.257 | 0.281 | 0.944 | > 20 |
| PL18 (pancreas, adherent) | 0.985 | > 5.12 | 0.684 | 4.06 | 0.983 | > 20 |
| PSN1 (pancreas, adherent) | 0.988 | > 5.12 | 0.269 | 0.314 | 0.947 | > 20 |
| QIMR-WIL (acute myeloid leukaemia, suspension) | 0.979 | > 5.12 | 0.228 | 0.208 | 0.868 | 17.4 |
| RCC10RGB (kidney, adherent) | 0.972 | > 5.12 | 0.699 | 7.92 | 0.934 | > 20 |
| RD (rhabdomyosarcoma, adherent) | 0.972 | > 5.12 | 0.452 | 0.915 | 0.963 | > 20 |
| REH (B-cell leukaemia, suspension) | 0.769 | 1.85 | 0.254 | 0.255 | 0.889 | > 20 |
| RERF-GC-1B (stomach, adherent) | 0.969 | > 5.12 | 0.815 | 12.7 | 0.981 | > 20 |
| RF-48 (stomach, adherent) | 0.982 | > 5.12 | 0.227 | 0.178 | 0.767 | 8.32 |
| RH-41 (rhabdomyosarcoma, adherent) | 0.992 | > 5.12 | 0.548 | 1.65 | 0.992 | > 20 |
| RMG-I (ovary, adherent) | 0.983 | > 5.12 | 0.583 | 2.2 | 0.952 | > 20 |
